{"source": "PubChem BioAssay AID1347165", "about": "(National Center for Advancing Translational Sciences (NCATS), 2019)", "note": "“And” between values parts separate entries of the source, which are not always exact repeats. Equal entries are not always repeated. Hit rate of the full screen: of about 220,000 compounds, about 5,700 (2.6%) were called active. Inconclusive means that the source gave no clear call. Such entries were picked first, then a sample of the others. Calls follow the shape of the dose curve; as a rule, active = well fitted inhibition curve with a large enough effect; inconclusive = small, poorly fitted or top-dose-only effect; inactive = no such curve, though single readings can be large or run the other way. A potency beside an inconclusive call is a rough fit, not a confirmed value. Potency is read from the fitted curve at half-maximal effect; tags tell the direction and shape of the fitted curve.", "data": [{"biological_target": "Lysine-specific demethylase 5B (Homo sapiens) (UniProt Q9UGL1)", "sequence (Q9UGL1 whole entry, looked up)": "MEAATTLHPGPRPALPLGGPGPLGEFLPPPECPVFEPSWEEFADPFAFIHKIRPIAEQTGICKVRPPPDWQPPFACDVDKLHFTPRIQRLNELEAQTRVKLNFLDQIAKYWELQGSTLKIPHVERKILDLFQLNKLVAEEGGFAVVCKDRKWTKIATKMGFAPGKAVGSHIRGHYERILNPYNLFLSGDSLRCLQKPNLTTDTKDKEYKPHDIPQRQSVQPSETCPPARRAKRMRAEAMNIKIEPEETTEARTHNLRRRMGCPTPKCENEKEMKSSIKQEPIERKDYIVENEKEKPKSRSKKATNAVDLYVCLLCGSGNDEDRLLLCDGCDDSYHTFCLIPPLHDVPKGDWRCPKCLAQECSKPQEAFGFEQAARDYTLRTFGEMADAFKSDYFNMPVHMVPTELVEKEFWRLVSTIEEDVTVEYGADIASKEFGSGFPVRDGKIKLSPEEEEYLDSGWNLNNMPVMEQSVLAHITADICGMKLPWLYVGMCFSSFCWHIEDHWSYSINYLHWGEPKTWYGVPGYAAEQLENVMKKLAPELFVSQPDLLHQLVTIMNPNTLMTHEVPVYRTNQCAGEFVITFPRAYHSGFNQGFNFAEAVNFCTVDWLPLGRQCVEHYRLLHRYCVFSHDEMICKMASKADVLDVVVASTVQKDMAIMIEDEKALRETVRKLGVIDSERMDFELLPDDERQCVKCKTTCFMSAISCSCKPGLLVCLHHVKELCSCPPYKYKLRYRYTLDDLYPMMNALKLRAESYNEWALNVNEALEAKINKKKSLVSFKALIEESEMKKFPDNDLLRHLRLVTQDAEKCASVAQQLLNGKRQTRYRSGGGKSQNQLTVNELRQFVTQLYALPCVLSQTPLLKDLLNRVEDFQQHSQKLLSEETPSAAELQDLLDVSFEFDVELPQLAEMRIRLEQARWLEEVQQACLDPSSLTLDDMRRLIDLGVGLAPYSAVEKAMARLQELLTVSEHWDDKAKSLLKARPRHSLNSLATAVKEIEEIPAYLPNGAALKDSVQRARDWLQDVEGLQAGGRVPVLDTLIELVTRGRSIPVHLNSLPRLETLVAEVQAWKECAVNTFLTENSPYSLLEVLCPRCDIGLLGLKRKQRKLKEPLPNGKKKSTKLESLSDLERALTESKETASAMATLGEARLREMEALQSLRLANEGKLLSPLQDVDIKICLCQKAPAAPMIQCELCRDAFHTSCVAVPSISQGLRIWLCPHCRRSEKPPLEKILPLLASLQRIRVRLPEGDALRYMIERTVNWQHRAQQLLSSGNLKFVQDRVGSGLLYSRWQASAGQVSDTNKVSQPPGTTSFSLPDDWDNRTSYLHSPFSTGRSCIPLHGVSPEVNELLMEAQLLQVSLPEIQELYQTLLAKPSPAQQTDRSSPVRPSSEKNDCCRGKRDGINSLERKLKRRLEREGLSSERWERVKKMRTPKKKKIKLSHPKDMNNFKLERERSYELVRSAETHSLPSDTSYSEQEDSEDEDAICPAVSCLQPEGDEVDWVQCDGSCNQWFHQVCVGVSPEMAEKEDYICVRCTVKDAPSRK", "assay": "Primary screen for KDM5B Histone Demethylases FDH-coupled qHTS; also: nearly all actives have a fitted effect of over 70% in size", "conditions": "FDH-coupled NADH fluorescence (FDH is formaldehyde dehydrogenase); series mostly up to 57.7 µM", "procedure,_shortened": "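Compound dilutions met 200 nM (final) KDM5BΔAP for 10 min at room temperature before substrate addition. The substrate mix held 12.5 µM H3K4me3 with cofactors 25 µM α-ketoglutarate and 50 µM Fe²⁺. NADH signal gain over 30 min defined activity.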", "values": [{"molecule": "Cc1ccc(C)c(C(=O)c2sc(Nc3cccc(F)c3)nc2N)c1", "Potency": "inactive"}, {"molecule": "COc1ccc(Cl)cc1Nc1nc(N)nc(CN2CCN(Cc3ccc4c(c3)OCO4)CC2)n1", "Potency": "inactive"}, {"molecule": "CCc1ccc(NCc2cc3cc(OC)c(OC)cc3n(CC(=O)Nc3ccc(F)cc3)c2=O)cc1", "Potency": "inconclusive: 2.82 µM [inhibitor, full curve, poor fit]"}, {"molecule": "CCCN1CCC(N2C[C@H]3OC(=O)N(CCc4cccc(Cl)c4)[C@H]3C2)CC1", "Potency": "inconclusive: 28.2 µM [inhibitor, partial curve, poor fit]"}, {"molecule": "Cc1cccc(NC(=O)CC2C(=O)OCCN2Cc2ccccc2)c1", "note": "(centres undefined)", "Potency": "inactive"}, {"molecule": "Cn1cc(-c2cccnc2)c2nc(COc3ccccc3)cn2c1=O", "Potency": "inactive"}, {"molecule": "CC(C)(C)C(=O)Nc1ccc2nc(SCc3ccccc3)sc2c1", "Potency": "inconclusive: 12.6 µM [inhibitor, partial curve, poor fit]"}, {"molecule": "Cc1cc(-c2cccc(COc3ccc4c(cnn4CC[S+](C)(=O)[O-])c3)c2)ccn1", "Potency": "inactive"}, {"molecule": "CC(C)N1C(=O)S/C(=C\\c2cc(Br)ccc2OCc2ccc(C(=O)O)cc2)C1=O", "Potency": "inactive"}, {"molecule": "CN(C)[C@@H]1CO[C@H](CNC(=O)c2cccs2)[C@H]1O", "Potency": "inconclusive: 31.6 µM [inhibitor, single point]"}, {"molecule": "Cc1ccc(S(=O)(=O)N2CCN(C(=O)CNc3cccc(Cl)c3Cl)CC2)cc1", "Potency": "inactive"}, {"molecule": "Cc1ccc2c(c1)c1c(c(=O)n(-c3ccccc3C)c(=O)n1Cc1cccc(F)c1)n2C", "Potency": "inconclusive: 1.26 µM [inhibitor, full curve, poor fit]"}, {"molecule": "Cc1ccc(Cl)cc1NC(=O)C(NS(=O)(=O)c1ccc2c(c1)CCC(=O)N2)c1ccccc1", "note": "(centres undefined)", "Potency": "inactive"}, {"molecule": "CCOC(=O)c1ccc2ncc(C(=O)OCC)c(NCCCO)c2c1", "Potency": "inactive"}, {"molecule": "CCOc1ccc(-c2cc3c(=O)n(CCNC(=O)c4ccc(OC)cc4)ccn3n2)cc1", "Potency": "inconclusive: 3.55 µM [inhibitor, full curve, poor fit]"}, {"molecule": "Cn1ccc2c(C(=O)NCc3cccnc3)nc(Nc3ccccc3)cc21", "Potency": "inconclusive: 39.8 µM [inhibitor, partial curve, poor fit]"}, {"molecule": "O=C(Cc1ccc(F)cc1)N1CCN(C(=O)c2nnn3c2COC(c2ccc(F)cc2)C3)CC1", "note": "(centres undefined)", "Potency": "inactive"}, {"molecule": "O=C1CC2(CCN(C(=O)c3ccccn3)CC2)Oc2ccccc21", "Potency": "active: 31.6 µM"}, {"molecule": "COCC(=O)NC[C@H]1OC[C@@H](NCc2cnc[nH]2)[C@@H]1O", "Potency": "inconclusive: 31.6 µM [inhibitor, partial curve, poor fit]"}, {"molecule": "COc1ccc(C2Cn3nnc(C(=O)N4CCN(C(=O)CCc5ccccc5)CC4)c3CO2)cc1", "note": "(centres undefined)", "Potency": "inconclusive: 17.8 µM [inhibitor, partial curve, poor fit]"}, {"molecule": "CCOC(=O)c1cnc2c(OC)cccc2c1Nc1ccc(N(C)C)cc1", "Potency": "inactive"}, {"molecule": "COc1ccc(CCNc2nc(-c3ccccc3OC)cc(C(F)(F)F)n2)cc1OC", "Potency": "inconclusive: 28.2 µM [inhibitor, partial curve, poor fit]"}, {"molecule": "CC(C)Nc1cc(N2CCN(C3CCCCC3)CC2)c2noc3c2c1C(=O)c1ccccc1-3", "Potency": "inconclusive: 14.1 µM [inhibitor, partial curve, poor fit]"}, {"molecule": "NC(CN1CCCC1)C1CCCCC1", "note": "(centres undefined)", "Potency": "inconclusive: 79.4 µM [inhibitor, partial curve]"}, {"molecule": "COc1cccc(COc2ccc3c(C)cc(=O)oc3c2)c1", "Potency": "inconclusive: 31.6 µM [inhibitor, partial curve, poor fit]"}, {"molecule": "Fc1cccc(CN2CCNc3cc(Nc4ccccc4)ncc3C2)c1", "Potency": "inactive"}, {"molecule": "Cc1cccc(NC(=O)N2CCC(N3CC4CC(C3)[C@H]3CCCC(=O)N3C4)CC2)c1", "note": "(some centres undefined)", "Potency": "inconclusive: 15.8 µM [inhibitor, partial curve, poor fit]"}, {"molecule": "CC1(C(=O)NCc2cccc(F)c2)COCc2cnc(Nc3ccccc3)nc21", "note": "(centres undefined)", "Potency": "inconclusive: 39.8 µM [inhibitor, partial curve, poor fit]"}, {"molecule": "CCOc1ccc(C(=O)Nc2c(C)nc(Nc3ccccc3)nc2Nc2ccccc2)cc1OCC", "Potency": "inconclusive: 15.8 µM [inhibitor, single point] and inconclusive: 39.8 µM [inhibitor, single point]"}, {"molecule": "Cc1cc2c(n1-c1ccc(C(=O)NCc3cccc(Br)c3)cc1)CCC(C)C2", "note": "(centres undefined)", "Potency": "inconclusive: 14.1 µM [inhibitor, partial curve, poor fit]"}, {"molecule": "COC[C@@H]1CN(C(=O)c2cncc(C)c2)C[C@H]1C(N)=O", "Potency": "inactive"}, {"molecule": "CCOC(=O)c1c(-c2ccccc2)oc2ccc(OCc3ccc(C)cc3)cc12", "Potency": "inconclusive: 14.1 µM [inhibitor, partial curve, poor fit]"}, {"molecule": "O=C(Nc1cccc(-c2ccc(N3CCOCC3)nn2)c1)Nc1ccc2c(c1)CCC2", "Potency": "inactive"}, {"molecule": "Cc1ccc(C(=O)OCC(=O)c2ccc(-c3ccccc3)cc2)s1", "Potency": "inactive"}, {"molecule": "CCCN1CCN(CCCN2C(=O)c3ccccc3C2C(=O)NC2CCCCCC2)CC1", "note": "(centres undefined)", "Potency": "inconclusive: 20 µM [inhibitor, partial curve, poor fit]"}, {"molecule": "CC(C)NC(=O)c1cccc2c1CCCN2CC(=O)NC(N)=O", "Potency": "inconclusive: 22.4 µM [inhibitor, partial curve, poor fit]"}, {"molecule": "Cc1c(-c2cccc(Cl)c2)nc2ccccc2c1C(=O)NC1CCCCC1", "Potency": "inactive"}, {"molecule": "CC(Oc1ccccc1)C(=O)N1CCC(n2cc(-c3nc(C(C)C)no3)nn2)CC1", "note": "(centres undefined)", "Potency": "inactive"}, {"molecule": "Cc1ccc(NC2CCCN(C(=O)CCN3CCCCO3)C2)cc1C", "note": "(centres undefined)", "Potency": "inactive"}, {"molecule": "O=C(NCCc1ccccc1)c1c2c(nc3ccccc13)C(=O)N(C1CCCCC1)C2", "Potency": "inconclusive: 35.5 µM [inhibitor, partial curve, poor fit]"}, {"molecule": "COc1ccc(NC(=O)CC2SCCNC2=O)c(OC)c1", "note": "(centres undefined)", "Potency": "inactive"}, {"molecule": "CC(C)(C)c1ccc(-c2csc(NC(=O)COCc3nc4ccccc4c(=O)[nH]3)n2)cc1", "Potency": "inactive"}, {"molecule": "Cc1ccc(C(=O)N[C@@H]2CN(c3ccncn3)C[C@H]2CN(C)C)cn1", "Potency": "inactive"}, {"molecule": "Cc1ccc2nc(-c3ccc(N)cc3)cc(C(=O)O)c2c1", "Potency": "inconclusive: 39.8 µM [inhibitor, single point]"}]}]}
